# Measurements from the supplement of paper PMC3334620.
# Over roughly 33,000 sequences, “E-score (-0.5 to 0.5)” has its median near -0.053; the highest 2% begin near 0.37. This is one part of the list.
# Target: Hap1 (UniProt P0CE41)
# Experiment: PBM E-score (8-mer binding enrichment) (E-score (-0.5 to 0.5)); higher = stronger / more preferred TF binding; most listed sequences are background and not binding sites
# Conditions: protein concentration: 200 nM; construct: GST-DNA-binding domain
# In short: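 Full-length yeast transcription factors or their DNA-binding domains, GST-tagged and expressed with PURExpress, were applied at about 100-200 nM to universal all-10-mer Agilent arrays. These arrays had been made double-stranded by primer extension on fresh or once-stripped slides. Detection used fluorescent anti-GST, normalisation used masliner, and E-scores for ungapped eight-base words pooled with reverse complements came from the Universal PBM Analysis Suite.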
# Chain of UniProt P0CE41 (P0CE41 whole entry): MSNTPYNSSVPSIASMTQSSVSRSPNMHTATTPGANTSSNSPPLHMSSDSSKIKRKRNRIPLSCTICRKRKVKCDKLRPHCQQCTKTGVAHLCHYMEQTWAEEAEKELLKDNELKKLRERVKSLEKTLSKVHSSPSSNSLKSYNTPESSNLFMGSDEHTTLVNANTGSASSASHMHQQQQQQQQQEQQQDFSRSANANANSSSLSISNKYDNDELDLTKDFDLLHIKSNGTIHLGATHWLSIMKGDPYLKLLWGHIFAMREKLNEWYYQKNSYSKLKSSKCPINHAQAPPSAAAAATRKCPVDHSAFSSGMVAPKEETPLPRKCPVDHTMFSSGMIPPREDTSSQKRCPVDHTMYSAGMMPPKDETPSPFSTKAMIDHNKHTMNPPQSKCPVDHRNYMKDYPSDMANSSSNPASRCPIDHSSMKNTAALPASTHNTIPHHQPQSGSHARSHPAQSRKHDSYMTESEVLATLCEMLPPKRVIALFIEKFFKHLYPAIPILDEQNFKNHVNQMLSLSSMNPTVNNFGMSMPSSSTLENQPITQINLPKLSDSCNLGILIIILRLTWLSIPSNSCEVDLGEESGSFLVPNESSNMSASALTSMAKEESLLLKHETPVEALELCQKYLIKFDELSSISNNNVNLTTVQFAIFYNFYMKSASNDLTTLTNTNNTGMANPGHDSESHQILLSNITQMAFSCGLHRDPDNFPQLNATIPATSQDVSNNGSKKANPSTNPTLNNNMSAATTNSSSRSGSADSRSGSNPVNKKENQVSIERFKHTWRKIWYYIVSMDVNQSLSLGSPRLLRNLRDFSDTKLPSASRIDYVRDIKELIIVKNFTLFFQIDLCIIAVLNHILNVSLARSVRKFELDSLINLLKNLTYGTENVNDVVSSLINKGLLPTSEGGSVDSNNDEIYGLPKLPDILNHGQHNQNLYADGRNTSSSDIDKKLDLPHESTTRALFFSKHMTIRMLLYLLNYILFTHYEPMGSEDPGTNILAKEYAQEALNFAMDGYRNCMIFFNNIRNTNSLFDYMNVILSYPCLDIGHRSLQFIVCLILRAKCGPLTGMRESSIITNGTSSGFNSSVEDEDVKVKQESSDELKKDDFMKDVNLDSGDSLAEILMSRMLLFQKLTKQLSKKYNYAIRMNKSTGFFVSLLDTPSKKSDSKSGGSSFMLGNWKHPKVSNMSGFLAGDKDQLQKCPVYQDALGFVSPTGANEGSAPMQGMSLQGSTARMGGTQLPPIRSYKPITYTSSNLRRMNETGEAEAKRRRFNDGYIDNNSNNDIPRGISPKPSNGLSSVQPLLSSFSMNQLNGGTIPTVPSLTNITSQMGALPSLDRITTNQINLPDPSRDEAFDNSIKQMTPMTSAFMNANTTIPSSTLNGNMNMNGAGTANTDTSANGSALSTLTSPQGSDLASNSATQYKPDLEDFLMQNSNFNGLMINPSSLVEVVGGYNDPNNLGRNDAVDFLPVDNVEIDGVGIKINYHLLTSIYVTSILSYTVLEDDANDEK
row,Sequence,PBM E-score
1,AAGGGGAT,0.0838
2,ATATTCGC,0.054
3,GTCCGAGA,0.437
4,AACTCACT,-0.289
5,CGGCTAGC,0.0611
6,TCCCCGCA,0.303
7,GGCCAAAC,0.0983
8,CATTGGCA,-0.165
9,AGTCTTGG,-0.14
10,CTGAATAC,-0.181
11,TCATGCAA,-0.125
12,CAGAAAAG,-0.112
13,AAATCTCC,0.284
14,AAGTCGAT,-0.0902
15,CAGATAGG,-0.142
16,AGCGATAC,0.065
17,ACGCGCAG,-0.272
18,GAAATCGC,0.196
19,AACTGTTC,0.212
20,CCCCCTAG,-0.21
21,AATCCAGC,0.00423
22,GATACCCC,0.197
23,ACTCATCT,-0.23
24,CTGGAGAA,-0.196
25,CAATTCGG,0.267

row,Sequence,PBM E-score
1,AGCCCCAA,-0.311
2,CCACACTA,-0.0143
3,CCTATGTC,-0.0218
4,CCCATGAC,-0.092
5,AAGGTATT,0.0721
6,AAAACGTT,-0.0584
7,ACCGGATA,0.359
8,CAATAGTC,-0.0523
9,GGCAGGCA,-0.135
10,GTGGACTA,-0.0056
11,CCTCAAGC,-0.0575
12,AAGCGGTG,-0.0488
13,ACGCGCCT,0.0003
14,GTGCGGGA,0.153
15,CAAATAAA,0.0232
16,AGTGCGCG,0.0751
17,GTGATCAA,-0.164
18,CTAATGAG,-0.0935
19,ATGTTACC,0.16
20,CCGCACGA,0.111
21,ATAGCACG,-0.142
22,CTGTAGGA,-0.126
23,AAGAGGCG,-0.0937
24,AGAGCCAC,-0.18
25,AAGCACTT,-0.132

row,Sequence,PBM E-score
1,GCCTAGCC,-0.0543
2,CGTGACCA,-0.142
3,AGCTCATA,-0.0177
4,ACACAACT,-0.245
5,AGCATTGA,-0.364
6,AGGGAGCA,-0.162
7,TTCGTAAA,-0.199
8,GCGAGCCC,0.064
9,AATAGTCG,0.0241
10,CGGTAACA,0.305
11,CCTAGATA,-0.263
12,GCCCGTGA,0.175
13,CTGGCGTC,-0.264
14,CACCCGAC,0.277
15,ATTCCCTA,0.0585
16,AAGCGCCA,-0.2
17,CCTTTTCA,-0.184
18,AGTCCAAA,-0.119
19,ACTTCAAT,-0.00268
20,ATTGTTGC,-0.248
21,CCAAAACG,-0.0849
22,TACACCAA,-0.213
23,CCACAGGA,-0.058
24,AAGAGCCC,-0.0136
25,TCGCAGAA,-0.138

row,Sequence,PBM E-score
1,AGGCCACT,-0.269
2,AATAGTCT,-0.174
3,ATGTCGGC,0.135
4,TACCAAGA,-0.253
5,CCCCAGCA,-0.136
6,GCAGTTGA,-0.0785
7,AACTGCCC,-0.0924
8,ACAGTTTC,0.0595
9,ACGCGCGT,0.0252
10,AAAGGGCT,-0.229
11,AGCCTCGG,0.281
12,TATTATAA,-0.0986
13,AGATGTCA,-0.086
14,ACGTACAC,-0.181
15,GGTTATGA,-0.152
16,AAGCTCCC,-0.184
17,CAGGCTCA,-0.294
18,GGTGATCA,-0.174
19,ACGGAGTA,0.228
20,AGACATTG,-0.184
21,TACTGAAA,-0.0602
22,GGCTAAGA,-0.076
23,AGCGCCGG,0.353
24,AACCAGTT,-0.058
25,CGTACACC,0.146

row,Sequence,PBM E-score
1,GCCCCGAC,0.252
2,AGCCTGAT,-0.187
3,GGCGTCGA,0.0569
4,ATACGCAC,0.125
5,ATCGTCCA,-0.0714
6,TGTGGGAA,-0.247
7,CCGACCTC,0.247
8,CTCAGACA,-0.275
9,AATCATTG,-0.315
10,ACGCCGTC,0.158
11,ACTAATGC,0.0692
12,AAGAACTG,-0.108
13,ACGTGCGG,0.0936
14,CTCTTCTA,-0.0379
15,ATATCCTA,-0.0242
16,GGATTTAC,0.415
17,CCCCACGG,0.22
18,GAATCTCA,-0.124
19,CTCAGATC,-0.243
20,GAAGGTAA,0.00731
21,GCTACATA,-0.0691
22,CCACGACC,-0.162
23,AGCTACTC,-0.182
24,AAAATGGG,-0.0355
25,CACATTAC,-0.0274

row,Sequence,PBM E-score
1,AGCTCGGC,0.354
2,AGCCACTA,-0.194
3,CGGTCATC,0.192
4,GAGAAGGA,-0.0299
5,CACTATAG,-0.302
6,CCGGGCCA,0.348
7,GTAAAGCA,-0.131
8,ATAAATAC,0.0813
9,GCGGGCGA,0.296
10,AAGTTTTG,-0.105
11,CGAAACGA,0.0705
12,CAGTCGGA,0.297
13,AGATCTAC,-0.157
14,ATAGATGC,-0.0781
15,GACCCGTA,-0.00899
16,CTGAGTGC,-0.118
17,CTTGGTTA,-0.127
18,CTACTAAA,-0.0678
19,CGGAGATC,0.411
20,CAACTCTA,-0.08
21,GTCAATAA,-0.0708
22,TATGATGA,-0.138
23,ACCTTATG,-0.127
24,CGCTACAA,0.0997
25,AAGTAATG,-0.00453

row,Sequence,PBM E-score
1,AATGCTAG,-0.168
2,ATGTGGCA,-0.172
3,AGTTCGCC,0.0635
4,CGGACGGC,0.327
5,AAGCGATA,0.027
6,ACTTGATA,-0.114
7,CTGCGCCC,-0.217
8,CCTTTACC,-0.0724
9,CGATTGCG,0.157
10,AGTGGTGA,0.0401
11,AGCCATAG,-0.21
12,CCGGACGC,0.366
13,ACAAAACA,-0.0996
14,ATGTAGTG,-0.189
15,CTCACAGA,-0.242
16,GTTATAAA,0.0308
17,AGTTGCAG,-0.198
18,GTTAGTAA,-0.215
19,AAGACTTG,-0.189
20,CATGCCAA,-0.295
21,ATGAAAGA,-0.115
22,AACTCCCG,0.333
23,TTACTCAA,0.0459
24,ACTCGGCC,0.361
25,CTTCCCCC,-0.0699

row,Sequence,PBM E-score
1,ATGCATAC,-0.217
2,TGGGCAAA,0.0173
3,CGACTCCG,0.292
4,AAATAATC,-0.0341
5,ACGCGTTC,0.0769
6,AAAGCGCA,0.171
7,CTAAAATA,-0.22
8,GAGCCATC,-0.132
9,CCACGAAA,-0.167
10,CCCTCCCG,0.0775
11,AAGTCCGC,0.427
12,CTCCGCTA,0.336
13,GCTACCGA,0.073
14,CGCCTGCC,-0.162
15,ACAGAACG,-0.103
16,AGGTCCGG,0.396
17,CCGAGAAC,0.329
18,ACGCTGCA,-0.166
19,AGGATCCA,-0.066
20,AAGCTCAT,-0.0306
21,CCTCACCC,0.00255
22,GCTCTCAC,-0.0915
23,GCAAATCA,-0.101
24,ATATCGTC,0.0615
25,AACCTCTT,0.0533

row,Sequence,PBM E-score
1,AACGCTAC,-0.0683
2,CAAAACTA,-0.0983
3,AAGCTGCC,0.0235
4,AATCCTCA,-0.195
5,CGCTATCA,0.155
6,GGATCGAA,0.168
7,AAATAGCG,0.0285
8,CAACCGTA,-0.223
9,GACGCACC,-0.118
10,AGGCCTAA,-0.118
11,AACTCCCA,-0.00143
12,ACACCTTG,-0.173
13,CCCCTGTC,-0.219
14,CCGTTTTC,0.15
15,ATAATATG,-0.00444
16,ACCTTGTA,-0.276
17,CACGAAAA,0.0279
18,GATCCCTA,-0.054
19,GTCGGTGA,0.216
